Test results from PubChem BioAssay (NCATS).
The inconclusive results got no clear call from the source; some entries with a clear call stand among them for comparison. Where the call is inconclusive, the potency comes from a doubtful curve fit. Activity calls are given as the source filed them. Calls follow the shape of the dose curve; as a rule, active = well fitted curve in the direction sought with a large enough effect; inconclusive = small, poorly fitted or top-dose-only effect, or another doubt; inactive = no such curve, though single readings can be large; an effect the other way counts as inactive or inconclusive.

test: qHTS Assay for Identifying Gametocytocidal Compounds (AID 743244); conditions: P. falciparum 3D7 stage III-V gametocytes, alamarBlue, 72 h; max response: active compounds read low
Outline: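 P. falciparum 3D7 stage III–V gametocytes (20,000 cells/well) were exposed to compounds for 72 h at 37 °C, 5% CO2. AlamarBlue was then added for 24 h; decreased resorufin fluorescence (Ex 525/Em 598 nm) indicated loss of viability.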
Potency is read from the fitted curve at half-maximal effect; tags tell the direction and shape of the fitted curve.

SMILES | Potency
Cn1cc(-c2[nH]c3cc(NC(=O)[C@H](N)C4CCCCC4)cc4c3c2C=NNC4=O)cn1 | active: 23.5 µM
Nc1ccccc1NC(=O)c1ccc(CNc2nccc(-c3cccnc3)n2)cc1 | active: 11.8 µM
Cc1ccc(NC(=O)c2ccc(CN3CCN(C)CC3)cc2)cc1Nc1nc(-c2cccnc2)cs1 | inconclusive: 29.6 µM [inhibitor, single point]
COc1ccc(-c2ccc3c(N4CCOC[C@H]4C)nc(N4CCOC[C@H]4C)nc3n2)cc1CO | inconclusive: 59 µM [inhibitor, single point]

test: qHTS Screen of the MIPE 4.0 Collection Against Ewings Sarcoma (RDES) (AID 1259252); conditions: RD-ES Ewing sarcoma viability, CellTiter-Glo, 48 h; series mostly up to 45.8 µM; also: nearly all actives have a fitted effect of over 35% in size;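 as to viability (percent of control): 100% = DMSO-treated cells and 0% = medium-only wells without cells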
Outline: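 After a 4 h attachment period in RPMI/5% FBS, cells were pin-dosed with test compounds; DMSO served as negative and 9.2 uM bortezomib (final) as positive control. Luminescent CellTiter-Glo signal at 48 h defined viability.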

SMILES | Potency | viability (percent of control)
Cc1cc(Nc2cc(N3CCN(C)CC3)nc(C=Cc3ccccc3)n2)n[nH]1 | active: 5.4 µM | –
COC1=C2C[C@@H](C)C[C@H](OC)[C@@H](O)[C@@H](C)C=C(C)[C@H](OC(N)=O)[C@@H](OC)C=CC=C(C)C(=O)NC(=CC1=O)C2=O | active: 0.59 µM | –
C[C@]12C=CC(=O)C=C1CC[C@@H]1[C@@H]2C(=O)C[C@@]2(C)[C@H]1CC[C@]2(O)C(=O)CO | inactive | –
COc1cc2c(cc1-c1c(C)noc1C)ncc1[nH]c(=O)n([C@H](C)c3ccccn3)c12 | active: 6.62 µM | –
COc1ccc2[nH]cc(CCNC(C)=O)c2c1 | active: 1.18 µM | –
CCCOc1ccc(C(=O)OCCN(CC)CC)cc1N | inactive | –
CC(C)C[C@H](NC(=O)c1cc2ccccc2s1)C(=O)N1CCN(C(=O)[C@H](CO)NS(=O)(=O)c2ccc(Cl)cc2Cl)CC1 | inconclusive: 23.5 µM [inhibitor, partial curve] | –
CC1(C)CC(=O)c2c(C(F)(F)F)nn(-c3ccc(C(N)=O)c(NC4CCC(OC(=O)CN)CC4)c3)c2C1 (stereo not drawn) | active: 0.166 µM | –
CC(C)[C@H](CO)Nc1nc(Nc2cccc(Cl)c2)c2ncn(C(C)C)c2n1 | active: 5.9 µM | –
CCOC(=O)C1=C(C)NC(=S)NC1c1cccc(O)c1 (stereo not drawn) | active: 0.264 µM | –
FC(F)c1nc2ccccc2n1-c1nc(N2CCOCC2)nc(N2CCOCC2)n1 | active: 0.235 µM | –
CC1=C(C(=O)O)N2C(=O)[C@@H](NC(=O)C(N)c3ccccc3)[C@H]2SC1 (stereo partly drawn) | inactive | –
Cn1cc(-c2[nH]c3cc(NC(=O)[C@H](N)C4CCCCC4)cc4c3c2C=NNC4=O)cn1 | active: 0.833 µM | –
CS(=O)(=O)Nc1ccc([N+](=O)[O-])cc1Oc1ccccc1 | inconclusive: 3.32 µM [inhibitor, partial curve, poor fit] | –
O=C1[C@H](Cc2ccc(O)cc2)N2C(=O)CCN(C(=O)NCc3ccccc3)[C@H]2CN1Cc1cccc2ccccc12 | inconclusive: 4.18 µM [inhibitor, full curve] | –
CCCc1nc(C(C)(C)O)c(C(=O)O)n1Cc1ccc(-c2ccccc2-c2nn[nH]n2)cc1 | inactive | –
COc1ccc(CC2c3cc(OC)c(OC)cc3CC[N+]2(C)CCC(=O)OCCCCCOC(=O)CC[N+]2(C)CCc3cc(OC)c(OC)cc3C2Cc2ccc(OC)c(OC)c2)cc1OC (stereo not drawn) | – | inactive: 121% [at 5.15 µM]
Nc1ccccc1NC(=O)c1ccc(CNc2nccc(-c3cccnc3)n2)cc1 | active: 1.32 µM | –
CC(C)CC(=O)Nc1n[nH]c2c1CN(C(=O)C1CCN(C)CC1)C2(C)C | active: 0.296 µM | –
Cc1c(C(=O)NN2CCCCC2)nn(-c2ccc(Cl)cc2Cl)c1-c1ccc(Cl)cc1 | inconclusive: 37.2 µM [inhibitor, single point] | –

SMILES | Potency | viability (percent of control)
COc1ccc(OC)c(-c2nnc3ccc(-c4ccc(OC)c(O[C@@H]5CCOC5)c4)nn23)c1 | active: 16.6 µM | –
COc1ccc2c(OCc3nnc4ccc(-c5ccccc5)nn34)ccnc2c1 | inactive | –
CCC(=O)O[C@]1(C(=O)CCl)[C@@H](C)C[C@H]2[C@@H]3CCC4=CC(=O)C=C[C@]4(C)[C@@]3(F)[C@@H](O)C[C@@]21C | inactive | –
O=C1CSC(=O)N1C(CCc1ccncc1)COc1ccc(-c2cccc([N+](=O)[O-])c2)cc1 (stereo not drawn) | active: 2.96 µM | –
Cc1cnc(NC(=O)C2=C(O)c3ccccc3S(=O)(=O)N2C)s1 | inactive | –
Cc1ccc(NC(=O)c2ccc(CN3CCN(C)CC3)cc2)cc1Nc1nc(-c2cccnc2)cs1 | inconclusive: 26.4 µM [inhibitor, single point] | –
O=C(Nc1nnc(-c2ccco2)o1)c1cc(-c2ccccc2)nc2ccccc12 | active: 16.6 µM | –
NC(=O)c1cccnc1 | inactive | –
O=[N+]([O-])c1cn2c(n1)OC[C@@H](OCc1ccc(OC(F)(F)F)cc1)C2 | active: 3.32 µM | –
C=CCn1c(=O)c2cnc(Nc3ccc(N4CCN(C)CC4)cc3)nc2n1-c1cccc(C(C)(C)O)n1 | active: 0.264 µM | –
Cc1cc(C(C)(C)C)cc(C)c1CC1=NCCN1 | inactive | –
Clc1cccc(-n2nnnc2NCc2ccccc2Oc2ccccn2)c1Cl | inactive | –
CCC(=C(c1ccc(O)cc1)c1ccc(OCCNC)cc1)c1ccccc1 | inconclusive: 26.4 µM [inhibitor, partial curve, poor fit] | –
c1ccc(-c2oc3ncnc(NC[C@@H]4CCCO4)c3c2-c2ccccc2)cc1 | inconclusive: 20.9 µM [inhibitor, partial curve] | –
COc1cc(Nc2ncc3c(n2)-c2ccc(Cl)cc2C(c2c(F)cccc2OC)=NC3)ccc1C(=O)O | inconclusive: 0.132 µM [inhibitor, full curve] | –
COCCOc1ccc2c(c1)ncn2-c1ccc2cccc(N3CCC(N)CC3)c2n1 | active: 18.7 µM | –
C[C@@H](Cc1cc2c(c(C(N)=O)c1)N(CCCO)CC2)NCCOc1ccccc1OCC(F)(F)F | inactive | –
COc1ccc(-c2ccc3c(N4CCOC[C@H]4C)nc(N4CCOC[C@H]4C)nc3n2)cc1CO | inconclusive: 0.0209 µM [inhibitor, full curve] | –
CCC(=O)O[C@]1(C(=O)SCF)[C@H](C)C[C@H]2[C@@H]3C[C@H](F)C4=CC(=O)C=C[C@]4(C)[C@@]3(F)[C@@H](O)C[C@@]21C | active: 16.6 µM | –
